Laboratory results: PubChem BioAssay AID686978 (National Center for Advancing Translational Sciences (NCATS), 2013)
Hit rate of the full screen: of about 420,000 compounds, about 64,000 (15%) were called active. Inconclusive results, whose numbers are uncertain, are shown with a selection of clear calls. Calls come from the whole dose curve; as a rule, active = well fitted inhibition curve with a large enough effect; inconclusive = small, poorly fitted or top-dose-only effect; inactive = flat fitted curve, though single readings scatter. No potency is given beside an inconclusive call; the fits are too rough.

Assay: qHTS for Inhibitors of human tyrosyl-DNA phosphodiesterase 1 (TDP1): qHTS in cells in absence of CPT; note: nearly all actives have a fitted effect of over 55% in size
Settings: DT40 Tdp1-/- hTDP1 cells, no CPT, ATP luminescence, 48 h; activity change, negative = growth inhibition: at 46.2 µM (top of the series) unless noted
Method in brief: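 Growth of hTDP1-complemented DT40 Tdp1-knockout cells is measured by ATP luminescence after at least 48 hr compound exposure at 37 °C, with DMSO substituting for the 20 nM CPT used in the parallel screen.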
% is set by controls: 0 for no effect and ±100 for the full control effect; potency is the fitted concentration of half-maximal effect; tags give direction and shape of the fitted curve.

SMILES	Potency	activity change, negative = growth inhibition
CC(=O)Nc1ccc(/C=C/C(=O)c2ccc3c(c2)OCCO3)cc1	inconclusive [inhibitor, partial curve, poor fit]	–
O=C(COC(=O)c1ccc(S(=O)(=O)N2CCCC2)cc1)NCc1ccco1	–	inactive: 0.894%
Cc1ccc2nc(NCCCO)nc(-c3ccccc3)c2c1	active: 11.6 µM	–
CC[n+]1c(/C=C(\C)Nc2ccccc2)sc2ccccc21	active: 18.4 µM	–
O=C(CN1CCCN(S(=O)(=O)c2ccc(F)cc2)CC1)Nc1c(Cl)cccc1Cl	inconclusive [inhibitor, single point]	–
CSc1ncc(C(=O)Nc2ccc(Br)cn2)c(C)n1	inconclusive [inhibitor, single point]	–
COc1ccc(Cl)cc1N(CC(=O)N1CCCC1)S(=O)(=O)c1ccc(C)cc1	inconclusive [inhibitor, single point]	–
CCCn1nnnc1SCC(=O)N(C(C)C)C(C)C	–	inactive: -17.7%
O=S(=O)(NCC(c1ccco1)N1CCc2ccccc21)c1ccccc1 (centres undefined)	active: 18.4 µM	–
CC(C)(Oc1ccc(Cl)cc1)C(=O)Nc1cccnc1	inconclusive [inhibitor, single point]	–
Cc1cc(C)c(NC(=O)CCCCCNC2CCCCC2)c(C)c1	inconclusive [inhibitor, single point]	–
CCC(O)C1CCN(C(=O)c2cc(COc3ccc4ncccc4c3)on2)CC1 (centres undefined)	active: 3.66 µM	–
CCCCN1CC(COCc2ccccc2)Oc2cccc(OCCN3C(=O)[C@@H]4[C@H](C3=O)C3C=C[C@H]4C3)c2S1(=O)=O (some centres undefined)	inconclusive [inhibitor, single point]	–
COC(=O)C[C@H]1C[C@H]2c3cc(NC(=O)Nc4ccc(F)cc4)ccc3O[C@H]2[C@@H](CO)O1	inconclusive [inhibitor, full curve]	–
Cc1nc(Nc2ccc(F)cc2)[nH]c(=O)c1CCC(C)C	inconclusive [inhibitor, partial curve]	–
COC(=O)C1=C(C(=O)OC)[C@@H]2N(Cc3ccccc3)c3ccccc3[C@@]23C[C@@H](C(=O)OC)N(C(C)=O)C3=N1	inconclusive [inhibitor, single point]	–
COc1ccc(C(O)c2nc(-c3ccc(OC)c(OC)c3)cs2)cc1 (centres undefined)	active: 18.4 µM	–
N#C/C(=C\c1ccc(Cl)cc1)C(=O)NC1CC1	inconclusive [inhibitor, single point]	–
COCC(=O)Nc1cc(C(=O)NC2CCc3ccccc32)c2c(c1)nc(-c1ccncc1)n2C (centres undefined)	–	inconclusive: -33.2% [inhibitor]
CCCn1c(=O)c(C(=O)Nc2cccc(C)n2)c(O)c2ccccc21	inconclusive [inhibitor, single point]	–
CCN1CCN(Cc2ccc(NC(=O)c3cc(NC(=O)C(=O)c4c[nH]c5ccccc45)cc(OC)c3)cc2C(F)(F)F)CC1	active: 20.6 µM	–
CCOc1ccc(-c2cccc(NS(=O)(=O)c3ccc(Cl)s3)c2)nn1	inconclusive [inhibitor, partial curve]	–

SMILES	Potency	activity change, negative = growth inhibition
Cc1cc2nc(C3CCCCC3)c(CC(C)(C)C)n2c(C)c1Br	inconclusive [inhibitor, single point]	–
COc1ccc(S(=O)(=O)N2CCOCC2)cc1NC(=O)/C=C/c1ccc(F)cc1	–	inactive: -6.32%
CN(C)c1ccc(C=C(c2nnnn2-c2ccccc2)c2nnnn2-c2ccccc2)cc1	active: 16.4 µM	–
CCOC(=O)c1cc2c(ccn2C)n1Cc1cc(C)ccc1C	inconclusive [inhibitor, single point]	–
COc1ccc(S(=O)(=O)N2CCC(C(=O)NCc3ccncc3)CC2)cc1	–	inactive: -28.8%
Cc1noc(NS(=O)(=O)c2ccc(NC(=O)c3cc4ccccc4o3)cc2)c1C	–	inactive: 0.148%
CCN1CCN(CCCNC(=O)Cn2nc(C)n3nc(-c4ccccc4)cc3c2=O)CC1	–	inactive: 6.84%
Cc1cccc2cc(CN(CCN3CCOCC3)C(=O)Nc3ccccc3F)c(=O)[nH]c12	inconclusive [inhibitor, single point]	–
CCOc1ccc(Nc2nc(Nc3ccc(O)cc3)nc(C)c2[N+](=O)[O-])cc1	inconclusive [inhibitor, partial curve]	–
CCc1ccc(-c2ccc3nnc(SCC(=O)Nc4cccc(C(C)=O)c4)n3n2)cc1	inconclusive [inhibitor, single point]	–
O=C(/C=C/c1ccccc1)NC(=S)Nc1cccnc1	–	inactive: -9.48%
COc1ccc(C(C)(O)c2nc(-c3ccc(Cl)cc3)cs2)cc1 (centres undefined)	inconclusive [inhibitor, single point]	–
COc1ccc2oc(C(=O)OCC(=O)Nc3cc(S(=O)(=O)N4CCOCC4)ccc3C)c(C)c2c1	–	inactive: -27%
Cc1cc(CSc2ccccc2)ccc1NC(=O)c1ccc(Cl)c([N+](=O)[O-])c1	inconclusive [inhibitor, partial curve]	–
COc1ccc(NC(=O)c2c(C)oc3ccc(O)c(CN4CCCC(C)C4)c23)cc1 (centres undefined)	inconclusive [inhibitor, single point]	–
CCOc1ccc(C(CCc2ccccc2)NC(=O)c2ccccc2F)cc1OCC (centres undefined)	inconclusive [inhibitor, single point]	–
COc1cccc(CNC(=O)c2ccc(CS(=O)c3ccccc3)o2)c1 (centres undefined)	inactive	–
CCN1C(=O)[C@H]2[C@@H](c3ccc(SC4CCCCC4)c(OC)c3)N[C@@](Cc3ccccc3)(C(=O)OC)[C@H]2C1=O	inconclusive [inhibitor, single point]	–
CCCCN(C)c1c(C)nc2ccc(C(=O)N(CC)CCN(C)C)cn12	–	inactive: -0.87%
O=C(CCNS(=O)(=O)c1ccc(Br)cc1)NC1CCN(Cc2ccccc2)CC1	active: 13 µM	–
COc1ccccc1C1SCCN1S(=O)(=O)c1ccccc1 (centres undefined)	inconclusive [inhibitor, single point]	–
COc1ccc(C2=C(N3CCN(c4cc(Cl)ccc4C)CC3)c3ccccc3C2=O)cc1	inconclusive [inhibitor, single point]	–
